The whole screen tested about 310,000 compounds, of which about 2,200 (0.71%) showed an effect of 50% or more. Effects have a minus sign here. Some of the results follow.
molecular target: human ether-à-go-go-related gene (hERG) potassium channel (human, UniProt Q12809); assay: primary screen, population patch clamp on CHO cells stably expressing hERG
Sequence (Q12809 whole entry, looked up): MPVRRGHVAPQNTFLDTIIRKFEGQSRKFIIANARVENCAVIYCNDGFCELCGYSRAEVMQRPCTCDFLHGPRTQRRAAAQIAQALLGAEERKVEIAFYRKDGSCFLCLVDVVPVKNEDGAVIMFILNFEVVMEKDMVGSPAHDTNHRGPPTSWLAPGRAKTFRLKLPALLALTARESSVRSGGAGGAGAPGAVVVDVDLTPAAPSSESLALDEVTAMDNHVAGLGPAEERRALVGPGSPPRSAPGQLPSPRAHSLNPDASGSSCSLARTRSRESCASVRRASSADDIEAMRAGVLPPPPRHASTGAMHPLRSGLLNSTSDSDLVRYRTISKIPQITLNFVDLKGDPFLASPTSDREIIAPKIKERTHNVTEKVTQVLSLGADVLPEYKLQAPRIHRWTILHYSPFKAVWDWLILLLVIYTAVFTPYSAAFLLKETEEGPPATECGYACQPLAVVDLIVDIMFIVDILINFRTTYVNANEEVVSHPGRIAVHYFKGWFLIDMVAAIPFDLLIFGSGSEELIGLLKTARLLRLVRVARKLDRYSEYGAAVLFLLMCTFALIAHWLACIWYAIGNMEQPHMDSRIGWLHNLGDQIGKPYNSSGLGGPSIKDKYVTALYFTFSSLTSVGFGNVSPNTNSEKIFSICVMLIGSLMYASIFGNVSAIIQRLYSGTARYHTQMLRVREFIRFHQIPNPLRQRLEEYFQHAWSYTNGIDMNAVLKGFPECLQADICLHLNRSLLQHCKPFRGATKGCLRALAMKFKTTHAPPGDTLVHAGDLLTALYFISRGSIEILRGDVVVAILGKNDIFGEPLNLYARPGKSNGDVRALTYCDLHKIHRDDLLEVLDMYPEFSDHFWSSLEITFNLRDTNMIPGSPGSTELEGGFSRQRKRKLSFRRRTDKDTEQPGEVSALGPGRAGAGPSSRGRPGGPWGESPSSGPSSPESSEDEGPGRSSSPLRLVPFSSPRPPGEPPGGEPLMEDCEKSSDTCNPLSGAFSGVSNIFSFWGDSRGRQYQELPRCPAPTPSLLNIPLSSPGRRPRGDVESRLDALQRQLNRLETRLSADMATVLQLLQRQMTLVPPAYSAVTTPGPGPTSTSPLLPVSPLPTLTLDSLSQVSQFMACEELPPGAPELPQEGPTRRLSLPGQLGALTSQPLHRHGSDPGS

| Structure (SMILES) | hERG current change (%, negative = inhibition) at 1uM |
| --- | --- |
| CC(C)n1c(CCCO)nc2ccccc21 | 4.55% |
| O=C(Oc1ccc(C(=S)N2CCCCC2)cc1)c1ccccc1F | 8.51% |
| CC(C)(C)C(=O)C1=C(O)C(=O)N(Cc2ccccc2)C1c1ccccc1F (stereo not drawn) | 19.5% |
| COc1cc(NS(=O)(=O)c2csc(C(N)=O)c2)cc(OC)c1 | 20.5% |
| CCCCNC(=O)c1c(O)c2cccc3c2n(c1=O)CCC3 | 3.9% |
| O=c1cc(CSc2nnc(COc3cccc4ccccc34)o2)c2ccccc2[nH]1 | 14.9% |
| O=c1cc(CCl)nc2scc(-c3ccccc3)n12 | 5.45% |
| CC(C)OP(=O)(c1ccc(N(C)C)cc1)C(O)c1ccncc1 (stereo not drawn) | 9.88% |
| COc1ccc(-c2ncncc2-c2ccc(OC)c(OC)c2)c(O)c1 | 10.6% |
| COc1ccc(C2C(C(=O)/C=C/c3ccco3)=C(O)C(=O)N2CCN2CCOCC2)cc1OC (stereo not drawn) | 12.8% |
| CCCCn1c(N)c(N(CCC(C)C)C(=O)c2ccc(-c3ccc([N+](=O)[O-])cc3)o2)c(=O)[nH]c1=O | 3.36% |
| Oc1ccc(NC(=S)N=Nc2c(O)[nH]c3ccccc23)cc1 | 11.5% |
| CC(C)Cc1ccc(CN2CCCC(NC(=O)CCCN3CCCC3=O)C2)cc1 (stereo not drawn) | -14.9% |
| CCOC(=O)Cc1nnc2c(Nc3ccccc3F)nc3nonc3n12 | 3.46% |
| CN(/N=C/c1ccc(Cl)cc1)c1ncc(Cl)cc1C(F)(F)F | 14.6% |
| COc1ccc(Cc2nnc(NC(=O)Nc3ccccc3F)s2)cc1OC | 13.2% |
| Cc1cc2cc(CNC(=O)c3cccs3)ccc2n1C | 6.73% |
| CCn1c(CNC(=O)c2ccc(OC)c(OC)c2)nnc1SCC(=O)Nc1ccc(OC)cc1 | 6.99% |
| CCCCN1CC(C(=O)NC2CCCCC2)CC1=O (stereo not drawn) | 13.6% |
| Cc1ccc(N2CC(C(=O)NC3CC3)CC2=O)cc1Cl (stereo not drawn) | 13.2% |
| Cc1ccc(S(=O)(=O)CC(=O)N2CCOCC2)cc1 | 0.468% |
| COC1=CC(=O)C[C@@H](C)[C@]12Oc1c(Cl)c(OC)cc(OC)c1C2=O | 3.75% |
| O=C(NNC(=O)c1ccccc1F)c1ccc2nc[nH]c2c1 | 0.315% |

| Structure (SMILES) | hERG current change (%, negative = inhibition) at 1uM |
| --- | --- |
| Cc1cccc(NC(=O)COc2coc(CN3CCN(c4ccccc4)CC3)cc2=O)c1C | -9.18% |
| COc1ccc(NC(=O)C2CC(=O)OC23CCOC(C)(C)C3)cc1 (stereo not drawn) | 10.3% |
| O=C(O)CCCCCNS(=O)(=O)c1ccc(Cl)cc1 | 13.5% |
| O=C(NCc1ccco1)C1(c2ccccc2)CCCC1 | 16.7% |
| COc1ccc(CN(Cc2cccnc2)S(=O)(=O)c2ccc(-n3cnnn3)c(OC)c2)cc1 | -15.1% |
| O=C(Nc1cccnc1)c1ccc(-c2ccccc2)cc1 | 2.75% |
| Cc1ccc(N(C)S(=O)(=O)c2cccc(C(=O)OCC(=O)N3CCCC(C)C3)c2)cc1 (stereo not drawn) | -0.403% |
| CC1CN(C2CCCCC2)c2nc3c(c(=O)[nH]c(=O)n3C)n2C1 (stereo not drawn) | 12.1% |
| CCCCNS(=O)(=O)c1ccc2nc(-c3cccnc3)cc(C(=O)NCCCOC)c2c1 | 5.42% |
| CNC(=S)NNC(=O)CCn1nc(C)c(Br)c1C | 9.11% |
| Cn1c(=O)oc2cc(S(=O)(=O)NCCC(=O)N3CCc4ccccc43)ccc21 | 5% |
| N/C(=N\OC(=O)CCc1ccccc1)c1cccc(Br)c1 | 5.8% |
| CCOC(=O)c1cc2sc(C)cc2n1CCCN1C(=O)c2ccccc2C1=O | 4.91% |
| O=C(Nc1cccc(OCC(=O)N2CCOCC2)c1)c1ccc(C(F)(F)F)cc1 | 5.06% |
| CCOC(=O)c1cnc2ccc(C)cc2c1NCCN1CCOCC1.Cl | -25.9% |
| CCc1sc(C(=O)Nc2ccc3c(c2)OCCO3)cc1Br | 15.7% |
| COc1ccc(CCNC(=O)c2cccs2)cc1 | 12.1% |
| O=C(NCCc1ccc2c(c1)OCCO2)c1ccc([N+](=O)[O-])cc1Cl | -2.08% |
| CC1C/C(=C/c2cccn2C)C(=O)/C(=C/c2cccn2C)C1 (stereo not drawn) | 9.71% |
| CCC1CN(C(=O)NCc2ccccc2)c2cc(C)ccc2O1 (stereo not drawn) | 4.85% |
| O=C(COC(=O)CCS(=O)(=O)c1ccc(Cl)cc1)Nc1ncc(Cl)cc1Cl | 2.93% |
| COc1ccc(OCc2cc(C(=O)NCC(C)Oc3cccnc3)no2)c(Cl)c1 (stereo not drawn) | 0.744% |

Reference: paper PMC4336329 (PLoS ONE, 2015)
